Measurements as given in the RNAGym collection of RNA variant scans (doi:10.1093/nar/gkz1192).
Read counts are not given, so values of variants with three or more changes are uncertain.

B1: CPEB3 Ribozyme (parent)
chain: UAACAGGGGGCCACAGCAGAAGCGUUCACGUCGCAGCCCCUGUCAGAUUCUGGUGAAUCUGCGAAUUCUGCUGUAUAUCUC

Variants of: B1
Assay: self-cleavage, relative activity (ratio to wild type); higher = more cleavage; in vitro, sequencing
Outline: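 After error-prone PCR and barcoding, CPEB3 ribozyme mutant libraries were transcribed with T7 RNA polymerase at 37°C for 5 hours, then given 15 min with DNase I before an EDTA stop, and they cleaved during both steps. Reverse transcription with template switching preceded Illumina sequencing. Relative activity divides a variant's cleaved/total read fraction by the unmutated ribozyme's. At least 5 reads were required per variant, and three batches were averaged.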

Row | Variant | self-cleavage
1 | G16U U26C U43C | 0.51
2 | G16C U25C A28U A47G | 0.06
3 | C17G U25C U60A U69C A75G U76C | 0.09
4 | A15U U49C U78C | 0.15
5 | C17U U25C U43A U66C U72C | 0.4
6 | C17U A20U C37U U58C C62U | 0.04
7 | A15U U26C U31C A35G G46U U80A | 0.08
8 | A15U U54C U66C U74C | 0.15
9 | C17A A35G U78A | 0.63
10 | C17A A28G C37U G70A A75U | 0.23
11 | A15U U58C U60C A64G | 0.12
12 | A15U U26C U41A U54A | 0.18
13 | A15U U31C G46A U69A | 0.05
14 | G16C U25A G46U U49C | 0.13
15 | C17U U25C C37A U41G C59A U78C | 0.15
16 | G16A U31C A45G | 0.17
17 | A15U U41C G42A U72G | 0.13
18 | C17G C39U U67A U76C A77G | 0.07
19 | G16A A18U U43C U48C U67C | 0.06
20 | G16U U26A U41C G52A U69G | 0.17
21 | A15U U41A U72G U76A | 0.09

Row | Variant | self-cleavage
22 | C17U A20G U26C A45U U72C U74C | 0.08
23 | C17U A45G A77G | 0.38
24 | G16C U25C A45G U60A U69A | 0.25
25 | A15U U26A C34G | 0.23
26 | C17U C29U G52A U54C | 0.28
27 | G16A U41C A45C U49C | 0.07
28 | A15U U48C U51C | 0.27
29 | G16U A56U A75G U80C | 0.16
30 | C17U A45G U74C | 0.44
31 | C17A U48C A64G U72C | 0.33
32 | C17U U25C C34A A57G | 0.04
33 | G16A C38A C71U U80C | 0.07
34 | G16A U26A A45G C71U | 0.49
35 | G16C U67C A75G U78C | 0.06
36 | C17G C34G U48C A57G | 0.24
37 | G16U A20G A28C U41C A65G | 0.06
38 | C17U U26A G61A | 0.45
39 | G16C U48G U54A U72A | 0.04
40 | C17G U26C A47G | 0.34
41 | C17U A28G A47G | 0.28
42 | A15U U49C G55C A65U U67A | 0.14

Row | Variant | self-cleavage
43 | C17A U31A U41A U80C | 0.08
44 | G16C A18U A64G U72C | 0.24
45 | C17A A18G U54G A64U | 0.03
46 | C17U A21G U26A | 0.21
47 | G16A U26A A45U U58C G63A | 0.12
48 | C17U C32G U67A U72A U80A | 0.1
49 | C17U U26C C62U U78C | 0.06
50 | G16C U51A A56U A75G U78A | 0.07
51 | A15U U49C U67C | 0.13
52 | G16A G19A U31A U60A G61U | 0.06
53 | G16C U51G G70A C81G | 0.11
54 | A15U U54G A56U C62U U76C | 0.12
55 | A15U U43A A57G | 0.82
56 | C17U C23A C37G U41A A56G | 0.14
57 | A15U U41A G46C U76C | 0.18
58 | C17U C23U U31A | 0.16
59 | G16C G24U G52C U60A | 0.3
60 | A15U U31C A45C U58C U69G U72G U74A | 0.04
61 | C17U U25A C32U G70A | 0.18
62 | A15U U26C C44U | 0.22
63 | C17U A47U U51A A64G U72C | 0.16

Row | Variant | self-cleavage
64 | G16C A28U U54A | 0.11
65 | G16A A64G U78C U80C | 0.3
66 | A15U U58C U76C A77U | 0.27
67 | A15U U43C A45G U66C | 0.15
68 | C17U U25A U80C | 0.12
69 | C17U A35G U72A | 0.77
70 | C17U G33A A35U C59A U60G U80C | 0.05
71 | C17A A18G A45U U54G A64U | 0.08
72 | G16A A20U A28U A65G U80A | 0.11
73 | G16U A21G C27U A35U U43C | 0.23
74 | G16C U60G G73C U74C | 0.14
75 | A15U U48A U67C A75U | 0.11
76 | C17A A56U U72C | 0.2
77 | C17U A20G A57C U60A G61A U67C U72C | 0.05
78 | G16C U51A A56U U58A U72C A77G | 0.12
79 | C17G A18U G24A C27A A35G A47U U54C | 0.06
80 | A15U U41C U48C U72C | 0.6
81 | A15U U41C U48C U60C U74A | 0.12
82 | G16A A35U A57U G70A | 0.17
83 | C17U C59A U80C | 0.25
